# From PubChem BioAssay AID588855 (National Center for Advancing Translational Sciences (NCATS), 2011)
# “And” between values parts separate entries of the source, which are not always exact repeats. Equal entries are not always repeated. Hit rate of the full screen: of about 410,000 compounds, about 5,000 (1.2%) were called active. Inconclusive means that the source gave no clear call. Such entries were picked first, then a sample of the others. Calls follow the shape of the dose curve; as a rule, active = well fitted inhibition curve with a large enough effect; inconclusive = small, poorly fitted or top-dose-only effect; inactive = no such curve, though single readings can be large or run the other way. Where the call is inconclusive, the potency comes from a doubtful curve fit.
# Assay: qHTS for Inhibitors of TGF-b; also: nearly all actives have a fitted effect of over 65% in size
# Details: HepG2 CAGA-GFP TGF-b/SMAD3 reporter, GFP fluorescence, 18 h, TGF-beta stimulated, 500 pg/mL final; series mostly up to 46.1 µM; activity, negative = inhibition: at the top concentration
# Method in brief: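 Per well, imaged GFP fluorescence of HEPG2 CAGA-GFP cells gives the signal; cells get compound, then TGF-beta (500 pg/mL final), 18 h at 37 degrees C; %Activity versus -TGF-beta and +DMSO controls.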
# % is scaled to controls: 0 for no effect and ±100 for the full control effect; potency is read from the fitted curve at half-maximal effect; tags tell the direction and shape of the fitted curve.
SMILES,"activity, negative = inhibition",Potency
COc1ccc(-c2ccc(C#N)c(SCC(=O)Nc3sc4c(c3C#N)CCC4)n2)cc1,inactive: 9.13%,
O=C(CCN1c2ccccc2Sc2ccccc21)Nc1ccccc1,,"inconclusive: 7.94 µM [inhibitor, partial curve, poor fit]"
CSCC[C@H](NC(=O)c1cccc(S(=O)(=O)N2CCCCC2)c1)c1nc2ccccc2[nH]1,inactive: -3.4%,
N#C/C(=C\c1cn[nH]c1-c1ccc(Cl)cc1)C(=O)NCc1ccccc1,,"inconclusive: 25.1 µM [inhibitor, single point]"
Cn1c2ccccc2c2cc(C(=O)N3CCN(CCO)CC3)sc21,,"inconclusive: 35.5 µM [inhibitor, single point]"
CC(=O)Nc1ccc(NC(=O)COC(=O)C2(c3ccc(Cl)cc3)CCCC2)cc1,,"inconclusive: 0.355 µM [inhibitor, full curve, poor fit]"
COc1ccc(-c2cn3nc(N4CCCC(C(=O)NCCCOC(C)C)C4)sc3n2)cc1 (centres undefined),,"inconclusive: 8.91 µM [inhibitor, partial curve, poor fit]"
CCc1ccc(NCc2cc3cc(OC)c(OC)cc3n(CC(=O)Nc3ccc(F)cc3)c2=O)cc1,inactive: -11.7%,
CC1=C(c2ccc(F)cc2)S(=O)(=O)NC1=NCc1ccccc1Cl,,"inconclusive: 35.5 µM [inhibitor, single point]"
CC(C)(C)C(=O)Nc1ccc2nc(SCc3ccccc3)sc2c1,,"inconclusive: 6.31 µM [inhibitor, single point]"
Cc1ccc(N=Nc2c(N)n[nH]c2N)cc1,inactive: -0.657%,
COc1ccc(CNCCC(c2ccc(OC(C)C)cc2)c2ccccc2OC)cc1 (centres undefined),,"inconclusive: 35.5 µM [inhibitor, single point]"
Nc1nnc(CC2=CCCCC2)s1,,"inconclusive: 15.8 µM [inhibitor, single point]"
COc1cc(OC)c2c(-c3cccc(-c4ccc(O)cc4)c3)cc(=O)oc2c1,,"inconclusive: 14.1 µM [inhibitor, partial curve, poor fit]"
COCCN(C(=O)CSc1nc(-c2ccccc2)cn1N)c1c(N)n(Cc2ccccc2)c(=O)[nH]c1=O,,"inconclusive: 0.891 µM [inhibitor, full curve, poor fit]"
CNC(=O)c1cc(-c2cccs2)on1,,"inconclusive: 2.82 µM [inhibitor, single point]"
COc1ccc(OC)c(C(=O)COC(=O)COc2ccccc2F)c1,inactive: -6.77%,
Cc1ccc(NC(=O)CC2Nc3ccccc3NC2=O)cc1Cl (centres undefined),,"inconclusive: 35.5 µM [inhibitor, partial curve, poor fit]"
CCCNc1c(N)c(=O)oc2ccccc12,,"inconclusive: 0.112 µM [inhibitor, full curve, poor fit]"
C=C(C)Cn1c2ccc(NC(=O)NCc3ccccc3)cc2c(=O)n1C,inactive: -2.2%,
CCN(CC)CC(=O)c1c(C)n(C)c2ccc(OC)cc12,inactive: 3.69%,
Cc1ccc2cc(CCNC(=O)c3cc4ccccc4o3)c(=O)[nH]c2c1C,,"inconclusive: 14.1 µM [inhibitor, single point]"

SMILES,"activity, negative = inhibition",Potency
CC(C)c1ccc(OCC(=O)Nc2c3c(nn2C(C)(C)C)CS(=O)(=O)C3)cc1,inactive: 8.84%,
COc1ccc(C(=O)Nc2cccc(OC(=O)c3ccc(C)c(C)c3)c2)cc1,,"inconclusive: 0.0891 µM [inhibitor, full curve, poor fit]"
COc1cccc(C(C(=O)NC2CCCC2)N(Cc2cccnc2)C(=O)Cc2cccs2)c1 (centres undefined),,"inconclusive: 0.891 µM [inhibitor, full curve, poor fit]"
Cc1ccc2c(c1)c1c(c(=O)n(-c3ccccc3C)c(=O)n1Cc1cccc(F)c1)n2C,,"inconclusive: 15.8 µM [inhibitor, single point]"
O=C(c1ccc2c(c1)CCN2S(=O)(=O)c1ccccc1)N1CCN(c2ccccc2)CC1,,"inconclusive: 35.5 µM [inhibitor, single point]"
O=C(Nc1cccc(Cl)c1)Nc1nnc(-c2ccncc2)s1,,active: 7.94 µM
Cc1ccc(C)c(N(CC(=O)NCc2ccco2)C(=O)CCC(=O)Nc2ccccn2)c1,,"inconclusive: 35.5 µM [inhibitor, single point]"
CC(=O)c1cccc(NC(=O)NCCc2c[nH]c3ccccc23)c1,inactive: 0%,
COc1ccccc1C(CCNCc1ccccc1)c1ccc(OC(C)C)cc1 (centres undefined),,"inconclusive: 12.6 µM [inhibitor, partial curve, poor fit]"
Cc1ccc(NC(=O)CSc2nc(O)c(Cc3ccccc3)c(=O)n2-c2ccccc2)cc1,,"inconclusive: 22.4 µM [inhibitor, single point]"
CCn1cc(C(=O)NCc2ccc(Cl)cc2)c(=O)c2cc(S(=O)(=O)N3CCc4ccccc4C3)ccc21,,"inconclusive: 5.62 µM [inhibitor, single point]"
CN(Cc1ccccc1)c1ccc(/C=C/c2nc3ccccc3s2)cc1,,"inconclusive: 10 µM [inhibitor, partial curve, poor fit]"
CCc1ccc2c(Cl)c(C(=O)N/N=C/c3c[nH]c4ccccc34)sc2c1,,"inconclusive: 28.2 µM [inhibitor, single point]"
CC1(c2ccc(Cl)cc2)NC(=O)N(CC(=O)NCCC2=CCCCC2)C1=O (centres undefined),,"inconclusive: 11.2 µM [inhibitor, partial curve]"
CN1C(=O)C2(c3ccccc31)C1CCCC=C1C(C#N)=C(N)C2(C#N)C#N (centres undefined),,"inconclusive: 20 µM [inhibitor, single point]"
CCN1C(=O)C(Cc2nc3ccccc3c(=O)n2C)c2ccccc21 (centres undefined),inactive: 8.01%,
Cn1cccc1C(=O)N/N=C/c1c(Cl)cccc1Cl,inactive: -4.69%,
CCCN1CCC(=O)N(CCSc2ccc(C)cc2)CC1,,inactive
CC(C)C[C@H](NC(=O)c1[nH]cnc1C(=O)N[C@@H](C)C(=O)OCc1ccccc1)C(=O)OC(C)(C)C,,"inconclusive: 35.5 µM [inhibitor, partial curve, poor fit]"
CC(=O)N1CCCc2cc(S(=O)(=O)Nc3ccc(OC(F)(F)F)cc3)ccc21,,"inconclusive: 17.8 µM [inhibitor, partial curve, poor fit]"
CCOc1cc(S(=O)(=O)Nc2ccc(CC)cc2)ccc1Cl,,"inconclusive: 35.5 µM [inhibitor, single point]"
N#Cc1ccc(-c2cccnc2)nc1SCC(=O)Nc1sc2c(c1C#N)CCC2,inactive: 72.3%,

SMILES,"activity, negative = inhibition",Potency
Cc1ccc(C)c(S(=O)(=O)c2cn(Cc3ccccc3)c3cc(N4CCCC4)c(F)cc3c2=O)c1,,"inconclusive: 5.62 µM [inhibitor, single point]"
CCCCCCCCCCOC(=O)Cn1c(COc2cccc(OC)c2)[n+](C)c2ccccc21,,"inconclusive: 12.6 µM [inhibitor, partial curve, poor fit]"
CC(C)c1c(C(=O)N/N=C/c2cccc3ccccc23)nnn1-c1nonc1N,,"inconclusive: 12.6 µM [inhibitor, partial curve, poor fit]"
COc1ccc2c(c1)c1c(c(=O)n(-c3ccc(C)cc3)c(=O)n1CC(=O)NCC1CCCO1)n2C (centres undefined),,"inconclusive: 14.1 µM [inhibitor, partial curve]"
c1ccc(Oc2c3ccccc3nc3ccccc23)cc1,,"inconclusive: 10 µM [inhibitor, partial curve]"
C/[N+]([O-])=C\c1ccc([N+](=O)[O-])o1,,"inconclusive: 35.5 µM [inhibitor, single point]"
CC(C)(C)OC(=O)N(CCc1ccccc1)Cc1cccc(OCc2cccc(NC(=O)C3CC3)c2)c1,,"inconclusive: 11.2 µM [inhibitor, partial curve]"
O=[N+]([O-])c1cc(-c2csc(NCCc3nc4cc(Cl)c(Cl)cc4n3CCCO)n2)ccc1Cl,,"inconclusive: 35.5 µM [inhibitor, single point]"
CC(C)(C)C1CCC(OCC(O)CN2CCN(Cc3ccccc3)CC2)CC1 (centres undefined),,"inconclusive: 22.4 µM [inhibitor, single point]"
Cc1ccc(S(=O)(=O)N2CCOCC2)cc1NC(=O)Cn1c(=O)ccn(Cc2ccccc2)c1=O,,"inconclusive: 25.1 µM [inhibitor, single point]"
Cc1noc(C)c1CSc1nnc2scc(-c3ccccc3)n12,,"inconclusive: 6.31 µM [inhibitor, single point]"
CCCCC(=O)N(C)c1c(CC)nc2c(OCc3ccc(C(F)(F)F)cc3)cccn12,,"inconclusive: 20 µM [inhibitor, single point]"
O=C(CSc1ccc(-c2ccc(Cl)cc2)nn1)Nc1ccc2c(c1)OCCO2,,"inconclusive: 1.78 µM [inhibitor, partial curve]"
COc1ccc(N(C(=O)CCl)C(C(=O)NCCc2ccccc2)c2cccs2)cc1 (centres undefined),,"inconclusive: 25.1 µM [inhibitor, single point]"
COC(=O)C1=C(C)N(Cc2ccccc2)C(=NCCc2ccccn2)N[C@H]1c1cccc(C(F)(F)F)c1,,"inconclusive: 25.1 µM [inhibitor, single point] and inconclusive: 17.8 µM [inhibitor, single point]"
COc1ccc(/C=C2\SC(=S)N(NS(=O)(=O)c3ccc(C)cc3)C2=O)c(OC)c1,inactive: 6.44%,
Cn1c(=O)c2cc(NC(=O)OCCF)ccc2n1Cc1cccc(C(F)(F)F)c1,inactive: -11.9%,
O=C(Nc1ccc(OC(F)(F)F)cc1)c1[nH]ncc1[N+](=O)[O-],,active: 11.2 µM
Cc1nc(NC(=O)CC(C)C)sc1-c1csc(Nc2ccc(Cl)cc2Cl)n1,inactive: -16.3%,
CCC(=O)C1CCCN(C(=O)CCc2nnc(C3(c4ccc(Cl)cc4)CCC3)o2)C1 (centres undefined),,"inconclusive: 35.5 µM [inhibitor, single point]"
